# From PubChem BioAssay AID651820 (National Center for Advancing Translational Sciences (NCATS), 2012)
# Among all 340,000 compounds or so, about 12,000 (3.5%) were called active. The shares of active, inactive and inconclusive entries below differ from those in the screen. The call rests on the fitted dose curve; in most records, active means well fitted inhibition curve with a large enough effect; inconclusive means small, poorly fitted or top-dose-only effect, or another doubt; inactive means no such curve, though single readings can be large or run the other way. No potency is given beside an inconclusive call; the fits are too rough.
# Experiment: qHTS Assay for Inhibitors of Hepatitis C Virus (HCV)
# Conditions: Huh7.5.1 HCVcc-Cre (HCVcc is cell-culture hepatitis C virus) infection, luciferase reporter, 44 h; activity change, negative = inhibition: at 41.8 µM (top of the series) unless noted
# Procedure, shortened: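 Cells (1,000/well) were plated 4 h before compound, then infected with HCVcc-Cre virus (~0.5 moi). After 44 h further culture, infection was read as luciferase luminescence following a 15 min substrate incubation at room temperature.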
# On the % scale 0 is the no-effect control and ±100 the full control effect; potency means the concentration at half of the fitted maximal effect; tags describe the fitted curve by direction and shape.
Compound,"activity change, negative = inhibition",Potency
CCOc1cccc(-c2nnc3sc(COc4ccccc4)nn23)c1,inactive: -7.68%,
COC(=O)C(CC(=O)c1cccc(OC)c1)c1ccc(F)cc1 (configuration not stated),,"inconclusive [inhibitor, single point]"
Cc1ccc(O)c(C(=O)c2cnc3c(c2)COc2ccc(C)cc2-3)c1,,"inconclusive [inhibitor, partial curve]"
Cc1cc(C(=O)CCl)c(C)n1CCc1ccc(F)cc1,,"inconclusive [inhibitor, single point]"
Cc1ccc(C(C(=O)NCc2ccco2)N(C(=O)CNC(=O)c2cccs2)c2ccc(C)cc2)cc1 (configuration not stated),,"inconclusive [inhibitor, full curve, poor fit]"
COc1ccc(NC(=O)c2ccc(-c3ccccc3Cl)o2)cc1,inactive: -25.5%,
c1ccc(N2CCN(c3nc(-c4cccs4)nc4ccccc34)CC2)cc1,,"inconclusive [inhibitor, single point]"
COc1ccc(NC(=O)CN(C)C(=O)Cn2cnc3c2c(=O)n(C)c(=O)n3C)cc1,inconclusive: -48.6% [inhibitor],
CC(C)Oc1ccc(CNC(=S)Nc2ccccc2)cc1Cl,inactive: -1.97%,
CC(C)C(=O)Nc1nnc(-c2ccco2)s1,inactive: 2.72%,
COc1ccc(CN2CCC(Cc3ccccc3)CC2)c(C)c1C,,"inconclusive [inhibitor, single point]"
COCCNC(=S)Nc1ccc2nc(N3CCOCC3)cc(C)c2c1,,"inconclusive [inhibitor, partial curve]"
O=C(NN1CCN(Cc2ccccc2Cl)CC1)c1ccc(Cl)cc1,inactive: 4.15%,
Cc1cccc2sc(NC(=O)Cn3cccc3)nc12,,"inconclusive [inhibitor, partial curve]"
COc1cc(NC(=O)c2ccco2)c(OC)cc1NC(=O)Nc1cccc(Cl)c1,,"inconclusive [inhibitor, full curve]"
CC(C)NC(=O)COC(=O)c1ccccc1Oc1ccccc1,,"inconclusive [inhibitor, single point]"
C#CCOCCOCCOCCNc1nc(N2CCN(C(=O)CCCCCCCCCCNC(=O)[C@H](CCCCN)n3cc(C)nn3)CC2)nc(N2CCN(C(=O)CCCCCCCCCCNC(=O)[C@H](CCCN=C(N)N)n3cc(C[C@@H](C)CC)nn3)CC2)n1,,"inconclusive [inhibitor, single point]"
CSc1cccc(NC(=S)N(CCN(C)C)C(C)c2ccccn2)c1 (configuration not stated),,"inconclusive [inhibitor, single point]"
CCCNc1c(NS(=O)(=O)c2ccc(C(C)(C)C)cc2)c(=O)oc2ccccc12,,"inconclusive [inhibitor, single point]"
CCOc1ccc2ccccc2c1/C=N/NC(=O)CNC(=O)c1ccccc1O,,"inconclusive [inhibitor, partial curve]"
CCOC(=O)CCc1c(C)c2ccc(OCC(=O)N(CC)CC)c(C)c2oc1=O,,"inconclusive [inhibitor, single point]"
CC(NC(=O)COC(=O)CNC(=O)c1ccc(-c2ccccc2)cc1)c1ccccc1 (configuration not stated),inconclusive: -102% [inhibitor],
CC(C)[C@H](NC(=O)NCCc1ccccc1)C(=O)O,inactive: 5.46%,

Compound,"activity change, negative = inhibition",Potency
COc1ccc(-c2cc3nc(C)cc(-c4ccc(OC)cc4)n3n2)cc1,,active: 10 µM
COc1ccccc1-n1c(-c2ccccc2)c[n+]2c1CCc1ccccc1-2,,active: 3.98 µM
CCC(C)NC(=O)c1ccc(CNS(=O)(=O)c2ccc3c(c2)C(C)(C)C(=O)N3C)cc1 (configuration not stated),inactive: -4.39%,
O=C(Nc1nccs1)c1ccc(COc2c(F)c(F)cc(F)c2F)cc1,,"inconclusive [inhibitor, single point]"
Cc1ccc(C(C)C)c(OCC(=O)NS(=O)(=O)c2ccc(Cl)cc2)c1,inactive: 12.4%,
O=C(NC1CCCN(Cc2ccccc2F)C1)c1cccs1 (configuration not stated),inactive: 9.96%,
NC(=O)Nn1c(CCC(=O)O)ccc1-c1ccc(Br)cc1,inactive: -11.4%,
CCCCc1ncc(CN2CCC(n3nccc3NC(=O)c3ccccc3Cl)CC2)[nH]1,inactive: 8.72%,
CCn1cc([C@@H]2C[C@H]3CN(Cc4cccc(Cl)c4)C(=O)[C@]34CCCN24)c(C)n1,,"inconclusive [inhibitor, partial curve]"
CCN(C(=O)c1ccco1)c1nc(CC(=O)Nc2ccc(Cl)cc2)cs1,,"inconclusive [inhibitor, single point]"
COc1ccc(/C=C2\OC(=O)c3c(OC)cccc32)cc1OC,,"inconclusive [inhibitor, single point]"
Cn1c(-c2c(N)n(CCc3ccccc3)c3nc4ccccc4nc23)nc2ccccc21,,"inconclusive [inhibitor, partial curve]"
CN1CCC(O)(c2cccs2)C(C(=O)c2cccs2)C1 (configuration not stated),,"inconclusive [inhibitor, single point]"
C[C@@H]1O[C@@H](O[C@@H]2C=C3CC[C@@H]4C(CC[C@]5(C)[C@@H](c6ccc(=O)oc6)CC[C@]45O)[C@@]3(C)CC2)[C@H](O)[C@H](O)[C@H]1O (some centres not stated),,active: 0.562 µM
O=C(c1ccc(Cl)cc1)C1CCCN(Cc2ccc(Oc3ncccn3)cc2)C1 (configuration not stated),,active: 11.2 µM
CC(C)N(C(=O)[C@H]1C[C@H](CC(=O)NC(C)(C)C)C(=O)N2CCc3c([nH]c4cc(-c5ccco5)ccc34)[C@]12C)C(C)C,,"inconclusive [inhibitor, single point]"
COc1ccc(OC)c(S(=O)(=O)N2CCC(C(=O)Nc3ccc(C)c(C)c3)CC2)c1,,"inconclusive [inhibitor, partial curve]"
O=C1C=C(c2ccc3ncccc3c2)C[C@@H](c2ccc3c(c2)OCO3)C1,,"inconclusive [inhibitor, full curve]"
CCOC(=O)c1c(NC(=O)CSc2ncccn2)sc(C(=O)NC)c1C,,"inconclusive [inhibitor, single point]"
COc1ccccc1CNC(=O)CN1C(=O)c2cccc(N)c2C1=O,inactive: 1.56%,
COc1ccc(C2=NOC(Cn3nc(C(=O)NCC4CC4)cc3-c3ccccc3)C2)cc1 (configuration not stated),,"inconclusive [inhibitor, single point]"
CCC(=O)N1CCCc2cc(S(=O)(=O)N3CCCc4ccccc43)ccc21,,active: 10 µM
COC(=O)Cn1nc(-c2ccc(C)c(S(=O)(=O)N(C)C)c2)c2ccccc2c1=O,,"inconclusive [inhibitor, single point]"

Compound,"activity change, negative = inhibition",Potency
CCOc1ccc(CCNC(=O)COC(=O)c2ccc(F)c(S(=O)(=O)N3CCOCC3)c2)cc1OCC,,"inconclusive [inhibitor, full curve, poor fit]"
Cc1cccc(C)c1NC(=O)CCCSc1nnc(-c2ccco2)n1-c1ccccc1,,"inconclusive [inhibitor, full curve]"
COCCn1c(=O)[nH]c2cc(C(=O)N3CCN(Cc4ccc5c(c4)OCO5)CC3)ccc2c1=O,inactive: 6.58%,
O=C(Nc1ccc2c(c1)CCC2)Nc1ccc2c(c1)OCO2,inactive: -16.8%,
CCOc1ccccc1C(=O)Nc1nccs1,,active: 5.62 µM
COc1ccc(COC(=O)c2ccc(Cl)c(S(=O)(=O)N3CCOCC3)c2)cc1F,,"inconclusive [inhibitor, single point]"
COc1ccc(/C=C/C(=O)C23CC4CC(CC(C4)C2)C3)cc1CN1CCOCC1,,"inconclusive [inhibitor, single point]"
CC(=O)c1ccc(C(=O)N2CCC(CO)(Cc3cccc(C(F)(F)F)c3)CC2)cc1,,"inconclusive [inhibitor, single point]"
COc1ccc(NC(=O)Cn2c(=O)n(-c3ccccc3)c(=O)c3oc4ccccc4c32)c(OC)c1,,"inconclusive [inhibitor, single point]"
COc1cccc2cc(-c3cc(=O)oc4ccc(OC(=O)N(C)C)cc34)oc12,,active: 11.2 µM
COc1cc(OC)c(OC)cc1/C=C1\Oc2cc(OS(C)(=O)=O)ccc2C1=O,,"inconclusive [inhibitor, single point]"
CNc1ncnc(Sc2ccc(Cl)cc2)c1[N+](=O)[O-],,"inconclusive [inhibitor, single point]"
CC(=O)N[C@H]1[C@H]([C@H](O)[C@H](O)CO)O[C@](O)(C(=O)O)C[C@@H]1O,,"inconclusive [inhibitor, single point]"
O=S(=O)(c1ccc(Br)s1)n1cccn1,inactive: 6.83%,
O=c1c2ccccc2nc(SCc2ccccc2)n1Cc1ccco1,,"inconclusive [inhibitor, partial curve, poor fit]"
CC1CCN(CCCCOc2ccccc2-c2ccccc2)CC1,,"inconclusive [inhibitor, partial curve]"
CCOC(=O)c1cnc2c(OC)cccc2c1N1CCN(c2ccccn2)CC1,,"inconclusive [inhibitor, single point]"
NCCNc1ccc(C(=O)N2c3ccccc3Sc3ccccc32)cc1[N+](=O)[O-],,active: 11.2 µM
CSc1nnc(Cn2c(=O)sc3ccccc32)n1-c1ccccc1,inactive: -12%,
N#Cc1ccc(-c2nc3cc(Cl)ccc3c(=O)n2O)cc1,,"inconclusive [inhibitor, single point]"
Cn1c(=O)c2c(n3cnnc13)-c1ccccc1CC21CCCC1,,"inconclusive [inhibitor, single point]"
